{"source": "PubChem BioAssay AID686978", "about": "(National Center for Advancing Translational Sciences (NCATS), 2013)", "note": "Several values for one entry are separate records, joined by “and”; a condition that tells them apart may be missing. Equal entries are not always repeated. Out of some 420,000 compounds screened, about 64,000 (15%) were called active. Inconclusive means that the source gave no clear call. Such entries were picked first, then a sample of the others. The call rests on the fitted dose curve; in most records, active means well fitted inhibition curve with a large enough effect; inconclusive means small, poorly fitted or top-dose-only effect; inactive means flat fitted curve, though single readings scatter. Potencies of inconclusive entries are doubtful fits and often do not repeat. Some structures have more than one record in an assay (separate samples or runs), and their calls can disagree. On the % scale 0 is the no-effect control and ±100 the full control effect; potency means the concentration at half of the fitted maximal effect; tags describe the fitted curve by direction and shape."}
{"test": "qHTS for Inhibitors of human tyrosyl-DNA phosphodiesterase 1 (TDP1): qHTS in cells in absence of CPT; further: nearly all actives have a fitted effect of over 55% in size", "conditions": "DT40 Tdp1-/- hTDP1 cells, no CPT, ATP luminescence, 48 h; activity change, negative = growth inhibition: at 46.2 µM (top of the series)", "summary_of_the_method": "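Camptothecin absent (DMSO only). Human TDP1-complemented DT40 knockout cells, 400 cells/well, 37 °C for minimum 48 hr; ATP measured via CellTiter-Glo, 30 min dark incubation, luminescence.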"}
{"smiles": "Clc1ccc(-c2ccn[nH]2)cc1", "Potency": "inactive"}
{"smiles": "COc1cccc(/C=C2\\SC(=S)N(CCCC(=O)N3CCOCC3)C2=O)c1", "Potency": "active: 18.4 µM"}
{"smiles": "N#Cc1ccccc1OCC(=O)Nc1cc(S(=O)(=O)N2CCCCC2)ccc1N1CCOCC1", "Potency": "inconclusive: 29.1 µM [inhibitor, single point]"}
{"smiles": "CSCc1c(C(=O)OCC(=O)c2ccc[nH]2)oc2ccccc12", "Potency": "inactive"}
{"smiles": "CCn1nc(C)c(/C=N/NC(=O)CSc2ccccn2)c1C", "Potency": "inconclusive: 20.6 µM [inhibitor, partial curve]"}
{"smiles": "COc1ccc2c(c1)c(C(O)CN1CCN(Cc3ccc4c(c3)OCO4)CC1)c(C)n2C", "note": "(stereo not given)", "Potency": "active: 23.1 µM"}
{"smiles": "O=C(/C=C/c1cccc(F)c1)NCCCn1ccnc1", "Potency": "inactive"}
{"smiles": "CCC(=O)N1CCN=C1SCc1cccc(F)c1", "Potency": "inconclusive: 23.1 µM [inhibitor, single point]"}
{"smiles": "O=C(C[n+]1cnn(CC(=O)c2ccc(Cl)cc2Cl)c1)c1ccc([N+](=O)[O-])cc1", "Potency": "inconclusive: 29.1 µM [inhibitor, single point]"}
{"smiles": "COc1ccc(C(C)=O)cc1CN1C(=O)NC2(CCCCC2)C1=O", "Potency": "inconclusive: 0.0058 µM [inhibitor, full curve]"}
{"smiles": "CCC(=O)Nc1nnc(SCc2cccc(F)c2)s1", "activity change, negative = growth inhibition": "inconclusive: -10.2% [inhibitor]"}
{"smiles": "CCOC(=O)c1ccc(S(=O)(=O)N2CCN(C(=O)c3nn(C)c(=O)c4ccccc34)CC2)cc1", "Potency": "inconclusive: 14.6 µM [inhibitor, single point]"}
{"smiles": "CCNC(=O)C1(C)CCCN(Cc2noc(-c3ccccc3OC)n2)C1", "note": "(stereo not given)", "Potency": "inconclusive: 16.4 µM [inhibitor, single point]"}
{"smiles": "CCc1ccccc1OCC(=O)Nc1cccc(S(=O)(=O)NC2=NCCCCC2)c1", "Potency": "inconclusive: 16.4 µM [inhibitor, partial curve]"}
{"smiles": "CCCCC1C2=C(CC(C)(C)CC2=O)OC2=C1C(=O)CC(C)(C)C2", "Potency": "inconclusive: 29.1 µM [inhibitor, single point]"}
{"smiles": "CCc1cccc2c(C(=O)CSc3nncn3-c3ccc(OC)cc3)c[nH]c12", "Potency": "inconclusive: 25.9 µM [inhibitor, single point]"}
{"smiles": "Cc1cccc(-c2nsc(SCC(=O)Nc3nccs3)n2)c1", "Potency": "inactive"}
{"smiles": "CCCCCCCCCCCCC/C=C/[C@@H](O)[C@@H](N)CO", "Potency": "inactive and active: 11.6 µM"}
{"smiles": "CCCNC(=O)C(Cc1ccccc1)NC(=O)c1ccc(C(F)(F)F)cc1", "note": "(stereo not given)", "Potency": "inconclusive: 13 µM [inhibitor, partial curve]"}
{"smiles": "CCOC(=O)c1c(C)oc2c(F)c(F)c(F)c(F)c2c1=O", "Potency": "active: 20.6 µM"}
{"smiles": "O=C(Nc1ccc(S(=O)(=O)Nc2ccc(F)cc2)cc1)c1ccc(CN2CCOCC2)cc1", "Potency": "active: 18.4 µM"}
{"smiles": "O=[N+]([O-])c1ccc(N2CCOCC2)cc1NC(c1ccccc1)c1ccccc1", "Potency": "inconclusive: 25.9 µM [inhibitor, single point]"}
{"smiles": "COc1ccccc1N1CCN(CC(O)COc2ccc(C)cc2C)CC1", "note": "(stereo not given)", "Potency": "inconclusive: 29.1 µM [inhibitor, single point]"}
{"smiles": "Cc1ccc(C)c(NC(=S)NCCc2ccc(S(N)(=O)=O)cc2)c1", "Potency": "inactive"}
{"smiles": "COc1ccc(CC(=O)NCCc2sc3nc(-c4ccc(OC)cc4)nn3c2C)cc1", "Potency": "inconclusive: 16.4 µM [inhibitor, partial curve]"}
{"smiles": "COc1c2c(c(OC)c3c1c(=O)c1ccccc1n3C)OCO2", "Potency": "inactive"}
{"smiles": "CC1(OC(=O)CCc2ccccc2)C(=O)C=C2C=C(c3ccc(C#N)cc3)N(CCN3CCOCC3)C=C2C1=O", "note": "(stereo not given)", "Potency": "inactive"}
{"smiles": "CC(C)=NNc1nc2c(c(=O)n(C)c(=O)n2C)n1C", "Potency": "inconclusive: 29.1 µM [inhibitor, single point]"}
{"smiles": "CCc1nnc(NC(=O)[C@@H](NC(=O)c2ccc(C(C)(C)C)cc2)C(C)C)s1", "Potency": "inconclusive: 18.4 µM [inhibitor, partial curve]"}
{"smiles": "CCn1cc(C(=O)OCc2cccc(Br)c2)c(=O)c2ccc(C)nc21", "Potency": "inconclusive: 29.1 µM [inhibitor, single point]"}
{"smiles": "COc1ccc(OC)c(-c2cc(C(=O)Nc3c(C)nn(Cc4ccccc4Cl)c3C)no2)c1", "Potency": "active: 23.1 µM"}
{"smiles": "CC(C)OC(=O)Nc1ccc2c(c1)N(C(=O)CCN1CCOCC1)c1ccccc1CC2", "Potency": "inconclusive: 14.6 µM [inhibitor, partial curve]"}
{"smiles": "S=C(Nc1ccc2nsnc2c1)N1CCCCCC1", "Potency": "inconclusive: 16.4 µM [inhibitor, partial curve]"}
{"smiles": "CN(C)S(=O)(=O)c1ccc(Cl)c(C(=O)NC2CCN(Cc3ccccc3)C2)c1", "note": "(stereo not given)", "activity change, negative = growth inhibition": "inconclusive: -30.5% [inhibitor]"}
{"smiles": "COc1ccc(C(=O)C2CCCN(Cc3cccn3-c3ccc(Cl)cn3)C2)c(OC)c1", "note": "(stereo not given)", "Potency": "active: 20.6 µM"}
{"smiles": "CCc1nnc(NC(=O)c2ccc(S(=O)(=O)N(CC(C)C)CC(C)C)cc2)o1", "Potency": "active: 18.4 µM"}
{"smiles": "CN(c1ccccc1C(N)=O)S(=O)(=O)c1ccccc1", "Potency": "inactive"}
{"smiles": "CCc1ccc(OCc2cc(=O)n3c4c(sc3n2)CCCC4)cc1", "Potency": "inconclusive: 29.1 µM [inhibitor, single point]"}
{"smiles": "CCCN(CCC)CCCNC(=O)c1cn(CC)c2ccc(S(=O)(=O)N(C)C3CCCCC3)cc2c1=O", "Potency": "inconclusive: 29.1 µM [inhibitor, single point] and inconclusive: 2.06 µM [inhibitor, partial curve]"}
{"smiles": "Cc1cc(NC(=O)CCC(=O)N(CC(=O)NCC2CCCO2)c2ccccc2C)no1", "note": "(stereo not given)", "Potency": "inactive"}
{"smiles": "COC(=O)N/N=C/c1ccc(-c2cc(Cl)cc(Cl)c2)o1", "Potency": "inactive"}
{"smiles": "CC(=O)CCc1c(C)c2cccc(C)c2[nH]c1=O", "Potency": "inconclusive: 16.4 µM [inhibitor, single point]"}
{"smiles": "O=C(N1CCOCC1)N1CCN(c2nc(-c3ccc(F)cc3)cs2)CC1", "Potency": "active: 16.4 µM"}
{"smiles": "COc1ccc(-c2nc(-c3ccccc3)nc(Cl)c2C#N)cc1", "Potency": "active: 10.3 µM"}
{"smiles": "O=C(C1CCC1)N1CCCc2cc(S(=O)(=O)N3CCN(c4ccccc4)CC3)ccc21", "Potency": "inconclusive: 29.1 µM [inhibitor, single point] and inconclusive: 18.4 µM [inhibitor, partial curve]"}
{"smiles": "Cc1noc(C)c1C(=O)Nc1cccc(S(=O)(=O)N2CCCCC2)c1", "Potency": "inactive"}
{"smiles": "CCNc1nc(NCC)n2c(SCC(=O)Nc3ccc(C)cc3Br)nnc2n1", "Potency": "inconclusive: 25.9 µM [inhibitor, single point]"}
{"smiles": "Cc1ccc(NC2=NCC(=O)N2CCc2ccccc2)cc1C", "Potency": "inconclusive: 20.6 µM [inhibitor, single point]"}
{"smiles": "COc1ccc(CNC(=S)NC2CCCCC2)cc1", "Potency": "inactive"}
{"smiles": "CCOC(=O)N1CCC(NC(=O)c2cc3c(-c4ccc(OC)c(OC)c4)nn(C)c3s2)CC1", "Potency": "active: 20.6 µM"}
{"smiles": "CCOC(=O)N1CCN(c2nc3ccccn3c(=O)c2C=O)CC1", "Potency": "inconclusive: 18.4 µM [inhibitor, partial curve]"}
{"smiles": "Cc1cc(/C=N/NC(=O)c2ccccn2)c(C)n1-c1cccc([N+](=O)[O-])c1", "Potency": "inconclusive: 18.4 µM [inhibitor, partial curve]"}
{"smiles": "CCCCNc1nc(-c2ccccc2)c(C(=O)OCC)cc1C#N", "Potency": "active: 23.1 µM"}
{"smiles": "COc1ccc(S(=O)(=O)Nc2cccc(S(=O)(=O)NC3=NCCC3)c2)cc1[N+](=O)[O-]", "Potency": "inactive"}
{"smiles": "CCC(=O)Nc1ccccc1-c1nc2ccccc2n(CC(=O)c2ccc(Cl)cc2)c1=O", "Potency": "inconclusive: 16.4 µM [inhibitor, partial curve, poor fit]"}
{"smiles": "N#Cc1cccc(Oc2ccc(-c3cnc4ccccc4n3)cc2)c1C#N", "Potency": "inconclusive: 5.17 µM [inhibitor, partial curve]"}
{"smiles": "Cc1ccccc1CC1(CO)CCCN(C(=O)c2cccc(Cl)c2)C1", "note": "(stereo not given)", "Potency": "inconclusive: 25.9 µM [inhibitor, single point]"}
{"smiles": "COc1ccc(NC(=O)c2sc(=O)n(Cc3ccc(SC)cc3)c2C)cc1OC", "Potency": "inconclusive: 18.4 µM [inhibitor, single point]"}
{"smiles": "CN(C)C(=O)Nc1ccccc1CC[N+](=O)[O-]", "Potency": "inactive"}
{"smiles": "O=C(NC(=S)N1CCN(c2ccccn2)CC1)c1ccco1", "Potency": "inactive"}
{"smiles": "CN(C/C=C/c1ccccc1[N+](=O)[O-])Cc1ccccc1", "Potency": "inconclusive: 29.1 µM [inhibitor, single point]"}
{"smiles": "COc1ccccc1CNc1nc(NCc2ccc(NC(C)=O)cc2)c2sccc2n1", "Potency": "inactive"}
{"smiles": "O=C(CSc1nc2ccccc2c(=O)n1Cc1ccco1)NCc1ccccc1", "Potency": "inactive"}
{"smiles": "CCN(CC)S(=O)(=O)c1ccc(N2CCN(C)CC2)c(NC(=O)Nc2ccc(C)cc2)c1", "Potency": "inconclusive: 29.1 µM [inhibitor, single point]"}
{"smiles": "O=C(Nc1ccccc1N1CCCC1)c1cccc(F)c1", "Potency": "inconclusive: 18.4 µM [inhibitor, single point]"}
{"smiles": "C=CCn1c(CCNC(=O)c2cccs2)nnc1SCC(=O)Nc1cccc(Cl)c1C", "Potency": "inconclusive: 32.6 µM [inhibitor, partial curve, poor fit]"}
{"smiles": "O=C(CSc1ncnc2scc(-c3ccc(Cl)cc3)c12)NCc1ccc2c(c1)OCO2", "Potency": "inconclusive: 25.9 µM [inhibitor, single point]"}
{"smiles": "CCOC(=O)c1c(C)[nH]c(CCC(=O)Nc2c(C)cccc2CC)c1C", "Potency": "active: 16.4 µM"}
{"smiles": "Cc1cc(C)n(C2=NS(=O)(=O)c3ccccc32)n1", "Potency": "inconclusive: 18.4 µM [inhibitor, single point]"}
{"smiles": "COC(=O)c1ccc(S(=O)(=O)N2CCCN(Cc3ccc(F)cc3)CC2)n1C", "Potency": "inconclusive: 16.4 µM [inhibitor, partial curve, poor fit]"}
